Measured values published in US20250026852A1 (Chugai, published 2025).

Key:
soluble human IL-6R = molecular target: T1, soluble human IL-6R (human, UniProt P08887 20-357); test: BLI (Octet), in the same way as in Example 3
T1 construct: also called hsIL-6R; recombinant human IL-6R
T1 sequence: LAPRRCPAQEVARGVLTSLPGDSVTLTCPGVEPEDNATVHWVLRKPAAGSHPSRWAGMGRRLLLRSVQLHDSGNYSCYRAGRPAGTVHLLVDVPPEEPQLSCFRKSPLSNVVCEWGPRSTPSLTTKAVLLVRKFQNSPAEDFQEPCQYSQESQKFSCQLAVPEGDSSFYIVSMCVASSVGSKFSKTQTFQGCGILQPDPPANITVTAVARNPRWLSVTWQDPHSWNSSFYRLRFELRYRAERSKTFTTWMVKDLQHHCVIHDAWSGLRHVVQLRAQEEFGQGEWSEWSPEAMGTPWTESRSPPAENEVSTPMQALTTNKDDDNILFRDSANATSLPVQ

human CD3ed-Fc = molecular target: T2, human CD3ed-Fc (human); test: BLI (Octet RED), human CD3ed-Fc on the sensor, protease-untreated molecule as analyte
T2 construct: Biotinylated in culture by BirA; also called biotin-labeled protein containing human CD3 epsilon and human CD3 delta linked to a human antibody constant region; CD3 heterodimer fused with the antibody constant region
T2 chain 1: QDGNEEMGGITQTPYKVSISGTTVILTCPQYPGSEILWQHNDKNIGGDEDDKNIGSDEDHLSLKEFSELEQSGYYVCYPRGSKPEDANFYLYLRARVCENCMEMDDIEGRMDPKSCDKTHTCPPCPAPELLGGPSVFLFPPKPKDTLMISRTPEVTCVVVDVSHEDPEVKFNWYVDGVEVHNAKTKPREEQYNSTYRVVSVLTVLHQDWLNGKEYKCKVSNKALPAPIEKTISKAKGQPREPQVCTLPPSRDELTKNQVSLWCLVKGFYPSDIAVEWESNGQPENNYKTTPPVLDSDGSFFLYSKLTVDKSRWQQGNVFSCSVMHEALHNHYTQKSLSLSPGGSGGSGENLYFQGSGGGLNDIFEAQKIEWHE
T2 chain 2: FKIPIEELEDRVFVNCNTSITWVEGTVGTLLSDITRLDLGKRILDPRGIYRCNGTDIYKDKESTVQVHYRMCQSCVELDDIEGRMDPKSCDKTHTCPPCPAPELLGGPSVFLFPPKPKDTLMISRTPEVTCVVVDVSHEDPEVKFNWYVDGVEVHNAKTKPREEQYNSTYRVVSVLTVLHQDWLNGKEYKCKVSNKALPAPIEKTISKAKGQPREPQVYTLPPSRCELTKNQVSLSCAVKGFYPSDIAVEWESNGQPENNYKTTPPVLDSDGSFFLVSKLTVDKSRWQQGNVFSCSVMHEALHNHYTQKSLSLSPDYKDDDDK
Description: The protease concentration was set to 25 nM, and Octet RED (Pall ForteBio Corp.) was used in the assay.
Next, the CD3 binding evaluation of VHH released by protease treatment was conducted in the same way as in Example 3.

- binding result (human CD3ed-Fc): no binding
B2: bC3edL1R1N161H01-G1mISHI01/VK1-39-k0MT (other)
heavy: QVQLVESGGGLVQPGGSLRLSCAASGFPFDNYVMSWVRQAPGKGLEWISAISWNGGSTYYAESMKGRFTISRDNAKSTLYLQMNSLKSEDTAVYYCAKEPRVYYSGSPDYWGQGTQVTVSGGSGLSGRSDNHGSSGGSS[gap - human IgG1 constant region]
light: DIQMTQSPSSLSASVGDRVTITCRASQSISSYLNWYQQKPGKAPKLLIYAASSLQSGVPSRFSGSGSGTDFTLTISSLQPEDFATYYCLQFDSYPLTFGGGTKVEIKRTVAAPSVFIFPPSDEQLKSGTASVVCLLNNFYPREAKVQWKVDNALQSGNSQESVTEQDSKDSTYSLSSTLTLSKADYEKHKVYACEVTHQGLSSPVTKSFNRGEC
notes: protease-untreated

- binding result (human CD3ed-Fc): no binding
B3: bC3edL1R1N164H01-G1mISHI01/VK1-39-k0MT (other)
heavy: QVQLVESGGGLVQPGGSLRLSCAASGFTFDVYGMSWVRHSPGKGLEWVSTINWNGGSTYYAESMKGRFTISRDNAKNTVYLQMNSLKPEDTAVYYCAKFAPWDGDMEWGQGTQVTVSGGSGLSGRSDNHGSSGGSS[gap - human IgG1 constant region]
light: B2 light
notes: protease-untreated

- binding result (human CD3ed-Fc): no binding
B5: bC3edL1R1N160H01-G1mISHI01/VK1-39-k0MT (other)
heavy: QVQLVESGGGLVQPGGSLRLSCAASGFTFNHCWMYWVRQAPGKGLEWVSVINTDGGSAYYADSVKGRFTISRDNAKNTLYLQMNSLKSEDTAVYYCARDWAPLVDYYYGMDYWGKGTLVTVSGGSGLSGRSDNHGSSGGSS[gap - human IgG1 constant region]
light: B2 light
notes: protease-untreated

Further lines, the binder ahead of its results:

B1: 20A11-G1m/VK1-39-k0MT (other)
heavy: EVQLVESGGGLVQPGGSLRLSCAASGSVFKINVMAWYRQAPGKGRELVAGIISGGSTSYADSVKGRFTISRDNAKNTLYLQMNSLRPEDTAVYYCAFITTESDYDLGRRYWGQGTLVTVSS[gap - human IgG1 constant region]
light: B2 light
notes: IgG antibody-like molecule
- binding result (soluble human IL-6R): binds

B4: 20A11-G1m/VL1-44-lamL (other)
heavy: B1 heavy
light: QSVLTQPPSASGTPGQRVTISCSGSSSNIGSNTVNWYQQLPGTAPKLLIYSNNQRPSGVPDRFSGSKSGTSASLAISGLQSEDEADYYCGTWDGGVTGVVFGGGTKLTVLGQPKAAPSVTLFPPSSEELQANKATLVCLISDFYPGAVTVAWKADSSPVKAGVETTTPSKQSNNKYAASSYLSLTPEQWKSHRSYSCQVTHEGSTVEKTVAPTECS
notes: IgG antibody-like molecule; VHH 20A11 in place of VH
- binding result (soluble human IL-6R): binds

Each block holds one binder with its values, some of them ahead of it.
